Measured values taken from the supplement of paper PMC12217912.
This is one part of the list. The full chains were built here from the parent and the listed change. Inactive controls read about 0.05.

B1: TEV protease; numbered along this chain (parent)
chain: MGESLFKGPRDYNPISSSICHLTNESDGHTTSLYGIGFGPFIITNKHLFRRNNGTLVVQSLHGVFKVKDTTTLQQHLVDGRDMIIIRMPKDFPPFPQKLKFREPQREERICLVTTNFQTKSMSSMVSDTSCTFPSGDGIFWKHWIQTKDGQCGSPLVSTRDGFIVGIHSASNFTNTNNYFTSVPKNFMELLTNQEAQQWVSGWRLNADSVLWGGHKVFMVKPEEPFQPVKEATQL

Variants of: B1
Experiment: raw area under fraction-flipped curve 0-4 h after induction (AUC4h, not background-subtracted), DNA-recorder readout of cleavage of the substrate (dimensionless); higher = more cleavage of the substrate by the protease variant
Details: temperature: 34 °C; time window: 0-4 h after rhamnose induction
Method: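 In vivo DNA recorder in E. coli TOP10(DE3) ΔrhaA at 34 °C. Each TEVp single-site mutant (parent TEVp 0) is paired with a single-site variant of the 7-mer TEVs (canonical ENLYFQ|S). The substrate sits between flexible linkers in a Bxb1-sfGFP-TEVs-SsrA fusion, so cleavage stabilises Bxb1 and speeds flipping of a recombination array, read by NGS. The value is the raw area under the fraction-flipped curve over 0-4 h after rhamnose induction (AUC4h), with ≥20 reads per time point. It is not background-subtracted; inactive controls average about 0.047.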
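Further: Bxb1 expression induced with 0.2% (w/v) L-rhamnose at OD600 near 0.5, cultures sampled hourly, flipped fraction per protease–substrate barcode pair counted by paired-end Illumina sequencing.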

Variant	area with substrate ENLYFAS	area with substrate ENLYFCS	area with substrate ENLYFES	area with substrate ENLYFFS	area with substrate ENLYFIS	area with substrate ENLYFMS	area with substrate ENLYFNS	area with substrate ENLYFPS	area with substrate ENLYFVS	area with substrate ENLYFGS	area with substrate ENLYFKS	area with substrate ENLYFRS	area with substrate ENLYFTS	area with substrate ENLYFYS	area with substrate ENLYFSS	area with substrate ENLYFLS	area with substrate ENLYFHS	area with substrate ENLYFWS	area with substrate ENLYFDS
P228M	0.0776	0.0512	0.0602	0.0722	0.0583	0.0727	0.0588	0.0752	0.0648	–	–	–	–	–	–	–	–	–	–
P228L	0.0413	0.0744	0.081	–	0.0701	0.0522	0.0488	0.053	0.0644	0.047	0.0447	–	–	–	–	–	–	–	–
P228G	0.0598	–	0.0535	0.0618	0.0625	0.0715	0.0587	0.0606	–	0.054	–	0.058	0.0377	0.0589	–	–	–	–	–
Q234Y	0.0581	–	0.0602	0.0695	0.0595	0.0705	0.071	0.0545	0.0543	–	0.0576	0.0572	0.064	0.0538	0.0542	–	–	–	–
K66G	–	0.0549	0.0781	0.0614	0.0504	0.0542	0.0548	0.0505	0.0551	0.0553	0.0643	–	0.0703	0.0632	–	0.0536	–	–	–
L211A	0.0566	–	0.0645	0.061	0.0654	0.0584	–	0.0581	–	–	–	–	–	–	0.0451	–	0.0577	0.0462	–
T55N	–	0.0746	0.0625	0.0661	0.0639	0.0655	0.0789	0.0658	–	–	0.0658	–	0.0673	–	0.0631	0.0567	–	0.0674	–
T55L	–	0.0636	0.0525	–	0.0487	–	0.0642	0.0524	0.0607	–	–	–	0.0606	–	–	–	0.0638	0.0521	–
E231F	0.0573	–	0.0699	0.0643	0.0639	0.0554	0.0723	0.056	–	–	0.0661	–	–	–	–	0.0503	0.0606	–	–
F65H	–	0.0541	0.063	0.0661	0.0527	0.0692	–	0.0538	–	–	0.0644	–	0.0527	0.0563	–	–	0.067	0.0507	–
W212P	0.0433	0.0465	–	0.0684	–	0.075	0.0618	–	–	–	–	–	0.0552	–	0.0371	0.0536	–	0.0547	–
W212L	0.0587	0.0507	0.0652	0.0513	0.0454	0.065	0.0642	0.0581	–	–	0.0625	0.0606	0.0642	–	0.061	0.0581	0.0503	–	0.03
V217F	0.0655	0.0589	0.0561	0.0566	0.0451	0.0544	–	0.0705	0.0688	–	0.0766	–	0.0385	0.0561	–	0.0669	–	0.0437	–
V217K	0.0666	–	0.064	0.0755	0.0661	–	0.0733	0.0627	–	0.0775	0.0529	0.0579	–	–	0.07	–	–	0.0492	–
V217T	0.0596	0.0473	0.0738	0.0573	0.0616	0.0449	–	0.0501	0.0552	–	–	–	–	–	–	–	–	–	0.0572
